Experimental findings from publication PMC4336329 (PLoS ONE, 2015) are described below.

Out of some 310,000 compounds screened, about 14,000 (4.5%) showed an effect of 50% or more. The effect is printed as a negative number. Some of the results follow.
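Note: peak tail current of the secondary pulse compared with the same well before compound.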

human ether-à-go-go-related gene (hERG) potassium channel, sequence (Q12809 whole entry, looked up): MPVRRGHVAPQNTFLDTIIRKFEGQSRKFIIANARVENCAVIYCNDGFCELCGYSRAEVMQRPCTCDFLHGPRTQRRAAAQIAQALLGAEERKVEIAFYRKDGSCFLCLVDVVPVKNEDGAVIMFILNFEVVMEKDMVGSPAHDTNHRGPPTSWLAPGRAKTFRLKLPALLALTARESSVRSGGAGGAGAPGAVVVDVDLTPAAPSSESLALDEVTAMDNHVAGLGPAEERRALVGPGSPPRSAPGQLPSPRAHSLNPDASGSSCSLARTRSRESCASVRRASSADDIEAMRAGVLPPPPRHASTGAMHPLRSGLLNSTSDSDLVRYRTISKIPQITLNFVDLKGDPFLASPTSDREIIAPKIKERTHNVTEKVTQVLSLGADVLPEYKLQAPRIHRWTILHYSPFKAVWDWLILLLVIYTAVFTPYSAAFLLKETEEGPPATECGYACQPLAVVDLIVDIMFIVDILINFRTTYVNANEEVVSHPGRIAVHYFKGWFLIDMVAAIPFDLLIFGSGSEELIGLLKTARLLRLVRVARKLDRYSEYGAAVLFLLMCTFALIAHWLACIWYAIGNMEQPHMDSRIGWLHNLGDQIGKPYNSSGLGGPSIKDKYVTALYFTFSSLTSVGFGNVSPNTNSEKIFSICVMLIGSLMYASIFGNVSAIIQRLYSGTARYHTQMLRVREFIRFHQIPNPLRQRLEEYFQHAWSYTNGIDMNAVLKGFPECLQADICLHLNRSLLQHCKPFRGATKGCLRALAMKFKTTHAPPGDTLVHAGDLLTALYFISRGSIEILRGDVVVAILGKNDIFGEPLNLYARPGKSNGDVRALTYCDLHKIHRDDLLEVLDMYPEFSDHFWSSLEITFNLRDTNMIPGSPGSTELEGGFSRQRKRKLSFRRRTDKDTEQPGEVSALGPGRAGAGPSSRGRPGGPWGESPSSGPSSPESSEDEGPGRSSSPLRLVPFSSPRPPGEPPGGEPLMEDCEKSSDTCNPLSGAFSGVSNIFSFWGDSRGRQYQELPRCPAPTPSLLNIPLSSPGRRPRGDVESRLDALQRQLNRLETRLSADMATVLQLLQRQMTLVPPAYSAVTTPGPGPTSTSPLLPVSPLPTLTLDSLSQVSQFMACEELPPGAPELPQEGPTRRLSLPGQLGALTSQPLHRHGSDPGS

This test concerns the target human ether-à-go-go-related gene (hERG) potassium channel (human, UniProt Q12809). The experiment in a line: primary screen, population patch clamp on CHO cells stably expressing hERG.
On to `Cc1ccc(C(=O)NCCOc2cccc3cccnc23)cc1Cl`, for which the “hERG current change (%, negative = inhibition) at 10uM” value is recorded as -7.01%.

As to `CC(C)COC(=O)N1CCCC1C(=O)Nc1nccs1` (stereo not shown), the “hERG current change (%, negative = inhibition) at 10uM” value is on record as 4.51%. With `CN1CC(=O)N(CCOc2ccccc2)C1=O` the figure was 23.7%; with `CC1(C)Cc2c(C#N)c(NC3CCCCC3)nc(-c3ccco3)c2CO1`, 5.67%. The figure for `COc1cccc(NC(=O)C(C)NS(=O)(=O)c2ccc(Br)cc2)c1` (stereo not shown) is -26.5%; for `COc1ccc(C(=O)Nc2ccc(N3CCCCC3)cc2)cc1Br` it is -8.48%. Take `O=C(CN1CCCCC1)Nc1ccc(C(F)(F)F)cc1Cl`: the “hERG current change (%, negative = inhibition) at 10uM” value came to 5.72%.

Regarding `CC12CN3CC(C)(CN(C1)C3c1cccs1)C2` (stereo not shown), the “hERG current change (%, negative = inhibition) at 10uM” value is recorded as -4.15%. With `CC(Oc1cc(F)ccc1[N+](=O)[O-])C(=O)Nc1ccc(S(=O)(=O)N2CCCC2)cc1` (stereo not shown) the figure was -8.24%; with `Cc1c(Cl)c([N+](=O)[O-])nn1CCCC(=O)NCCc1ccccc1`, -8.79%. With `O=C(C1=C[C@@H](c2ccccc2)C[C@@H](OCc2ccc(CO)cc2)O1)N1CCCCCCC1` the figure was -24.1%; with `Cc1noc(C)c1S(=O)(=O)N1CCCC(C(=O)Nc2ccc(Cl)cn2)C1` (stereo not shown), -26%; with `O=C1Nc2ccccc2C1=Nc1cccc(Cl)c1`, 16.7%. The figure for `COCc1ccc(CN2CCC(C(=O)Nc3cccc(-c4cscn4)c3)CC2)o1` is -18.9%; for `C=CC(COCc1ccccc1)N(Cc1ccc(OC)cc1)S(=O)(=O)c1ccccc1Br` (stereo not shown) it is -1.75%.

In the case of `O=C(CNC(=O)C1CCCCC1)OCC(=O)c1ccc(F)cc1`, the “hERG current change (%, negative = inhibition) at 10uM” value worked out at 5.44%.

For `COc1cc(CNC(C)(C)CO)cc(Br)c1OCc1ccc(Cl)cc1Cl`, the “hERG current change (%, negative = inhibition) at 10uM” value is on record as -39.7%. The figure for `O=C(NC(=S)Nn1cnc2c(cnn2-c2ccccc2)c1=O)c1ccc(Oc2ccccc2)cc1` is 16%; for `CN(Cc1ccccc1)C(=O)c1ccc(NC(=O)Cc2cccc(NC(=O)C3CCN(C(=O)C4CCCC4)CC3)c2)cc1` it is 8.22%; for `CC1CCCN(CC(O)COCc2ccccc2)C1.Cl` (stereo not shown) it is -1.07%. With `CCCn1c(N)c(Br)c(=O)[nH]c1=O` the figure was 13.5%; with `C=C[C@@]1(C)CC(=O)[C@]2(O)[C@@]3(C)[C@@H](O)CCC(C)(C)[C@@H]3[C@H](OC(C)=O)[C@H](O)[C@@]2(C)O1`, 7.62%. The figure for `S=C(c1c[nH]c2ccc(Br)cc12)N1CCOCC1` is -9.38%; for `Cc1ccc(OCCNC(=O)c2ccccc2N)cc1` it is -0.662%; for `O=C(CSc1ccc(-c2cccnc2)nn1)N1CCCc2ccccc21` it is -34.9%. `O=C1NCCN1CCNS(=O)(=O)c1cc(C(F)(F)F)cc(C(F)(F)F)c1`: the “hERG current change (%, negative = inhibition) at 10uM” value is listed as 17.2%. The figure for `O=C(CSc1nnc(Cc2ccccc2)n1Cc1ccco1)NC12CC3CC(CC(C3)C1)C2` is -43.2%. The figure for `Cn1c(/C=N/Nc2nc3ccccc3[nH]2)nc2ccccc21` is -35.7%; for `CC(=O)OC[C@]12CCC(C)=C[C@H]1O[C@@H]1[C@H](O)[C@@H](OC(C)=O)[C@@]2(C)[C@]12CO2` it is 3.74%.

On to `COc1cccc(OC)c1C(=O)NCCOc1cc(C)cc(C)c1`, for which the “hERG current change (%, negative = inhibition) at 10uM” value was 4.7%. With `COc1cc(NC(=O)c2ccccc2C)c(OC)cc1NC(=O)CN1CCOCC1` the figure was -7.78%; with `Cc1occc1C(=O)NC1CCCN(Cc2ccc(CC(C)C)cc2)C1` (stereo not shown), -38%.

On to `CSc1ccc(-c2c(C#N)c(N)nc3c2c(C)nn3-c2ccccc2)cc1`, for which the “hERG current change (%, negative = inhibition) at 10uM” value is on record as -10.5%. The figure for `COC(=O)CC1(Cc2ccccc2)C(=O)NC(=O)NC1=O` is 15.9%; for `O=C(CSCc1ccc(Cl)cc1)Nc1ccc(S(=O)(=O)N2CCCCCC2)cc1` it is 6.72%.

In the case of `CCOC(=O)c1[nH]c2c(c1-c1ccc(OC)cc1)C(=O)CC(c1ccc(OC)c(OC)c1)C2` (stereo not shown), the “hERG current change (%, negative = inhibition) at 10uM” value is recorded as -10.9%.

As to `CN1C=CC=C/C1=C1\SC(=S)N(N)C1=O`, the “hERG current change (%, negative = inhibition) at 10uM” value stood at 26.4%. With `O=C(Nc1cccc(Cl)c1)NC1CC2CCC1C2` (stereo not shown) the figure was 9.69%; with `CC1CC(C)CN(C(=O)/C(=C\c2ccccc2)c2ccccc2)C1` (stereo not shown), -27.4%; with `Cl.O=C(O)CCN1CCc2ccccc2C1c1cccs1` (stereo not shown), 22.3%. The figure for `O=C(O)c1ccc(-n2nncc2-c2ccco2)cc1` is 18.1%; for `CCn1c(=O)cc(OCC(=O)NCc2cccnc2)c2ccccc21` it is 0.488%.

For the compound `COc1ccc(OCC(=O)Nc2ccccc2-c2ccccc2)cc1`, the “hERG current change (%, negative = inhibition) at 10uM” value is -2.34%. The figure for `COc1ccc(OCCN2CCOCC2)cc1` is 20.2%; for `COc1cccc(C2=NOC(C(=O)Nc3cccc(C(C)=O)c3)C2)c1OC` (stereo not shown) it is 1.69%. As for `CCC1CCCCN1CCCNC(=O)c1ccc(CS(=O)(=O)Cc2ccccc2F)o1` (stereo not shown), the “hERG current change (%, negative = inhibition) at 10uM” value stood at 3.29%.

Take `C/C(=C\C(=O)c1ccc(Cl)cc1)NCc1ccc2c(c1)OCO2`: the “hERG current change (%, negative = inhibition) at 10uM” value is 3.43%.

Take `CCOc1nc(C)ccc1-c1noc(-c2cccnc2)n1`: the “hERG current change (%, negative = inhibition) at 10uM” value is on record as 20.9%.

For the compound `CN(C)c1ccc(C(=O)N2CCCC(CCC(=O)N3CCN(c4ccccn4)CC3)C2)cc1` (stereo not shown), the “hERG current change (%, negative = inhibition) at 10uM” value is reported as -7.51%. The figure for `COC(C(=O)Nc1ccnn1C1CCN(Cc2ccc(Cl)s2)CC1)c1ccccc1` (stereo not shown) is -5.29%; for `Cc1cc(C)c(NC(=O)Cn2nnc(C(=O)NCc3ccco3)c2N)c(C)c1` it is 13%. With `C[C@]12CC[C@@H]3c4cc(O)c(O)cc4CC[C@H]3[C@@H]1CC[C@@H]2O` the figure was 24.1%; with `COc1ccc(CCNC(=O)COC(=O)Cc2cc(OC)c(OC)c(OC)c2)cc1`, 11.5%; with `CCOc1ccc(NC(=O)CSc2nc(O)c(C)c(=O)n2-c2ccc(F)cc2)cc1`, -45.8%. With `CC(C)Cn1[nH]c2c3c(ccc2c1=O)C(=O)c1ccccc1C3=O` the figure was -12.1%. As to `COC1=C(Nc2ccccc2)C(=O)c2ccccc2C1=O`, the “hERG current change (%, negative = inhibition) at 10uM” value was -0.627%. With `CCOC(CNC(=O)c1ccc2nc(N3CCC(C)CC3)sc2c1)OCC` the figure was 10.6%; with `O=C(CCc1ccccc1)N/N=C/c1cc(Br)ccc1O`, 11.7%; with `NC1=NC[C@H](Cc2ccc(O)cc2)N1CCc1cccc2ccccc12`, -4.14%. With `Cc1ccc(S(=O)(=O)Nc2ccc(NC(=O)c3cccnc3)cc2)cc1` the figure was -18.1%; with `O=C(c1[nH]ncc1-c1ccccc1)C1CO1` (stereo not shown), 16.1%. The figure for `CN1CCN(c2ccccc2/C=C2/C(=O)Nc3ccccc32)CC1` is -36.3%. `CCOC(=O)c1ccc(-n2cccc2/C=C2\NC(=O)NC2=O)cc1`: the “hERG current change (%, negative = inhibition) at 10uM” value amounted to 16.3%.

As to `COc1cccc2cc(C(=O)C3=C(O)C(=O)N(CCN4CCOCC4)C3c3ccc(C)o3)oc12` (stereo not shown), the “hERG current change (%, negative = inhibition) at 10uM” value is given as -0.475%. With `CN1CCN(c2nc3c(c(=O)[nH]c(=O)n3C)n2CCCSc2nnnn2-c2ccccc2)CC1` the figure was -51.2%; with `COc1ccc(CN2CCCCC2c2cccnc2)c(OC)c1C` (stereo not shown), 2.45%. As to `Cc1ccc(NC(=O)C(=O)C2C(=O)Nc3ccccc32)cc1` (stereo not shown), the “hERG current change (%, negative = inhibition) at 10uM” value is recorded as 3.99%. With `Cc1cc(C)c(NC(=O)CN(C)C(=O)C2CC(=O)N(c3cccc4ccccc34)C2)c(C)c1` (stereo not shown) the figure was -3.25%. The figure for `Br.COc1ccc(OC)c(N2Cc3ccccc3C2=N)c1` is -41.3%; for `CCCn1nc(NC(=O)c2cccs2)c2cc3cc(OC)ccc3nc21` it is -6.83%; for `O=C(O)CCC(=O)N1CCc2cc(S(=O)(=O)N(CCc3ccccc3)Cc3ccccc3)ccc21` it is 56.3%. The figure for `CCOc1ccc(C(C(=O)NC2CCCCC2)N(C(=O)c2ccccn2)c2cccnc2)cc1` (stereo not shown) is 7.4%; for `CC1CCCCN1C(=O)CCc1nnc(Cc2c[nH]c3ccccc23)o1` (stereo not shown) it is 4.94%; for `CCN1C(=O)[C@H]2[C@@H](c3ccc(-c4cccc(Cl)c4)cc3)N3CCCC[C@@]3(C(=O)OC)[C@H]2C1=O.O=C(O)C(F)(F)F` it is 1.51%. Regarding `C[C@@H]1CC[C@@]2(NC1)O[C@H]1C[C@H]3[C@@H]4CC=C5C[C@@H](O)CC[C@]5(C)[C@H]4CC[C@]3(C)[C@H]1[C@@H]2C`, the “hERG current change (%, negative = inhibition) at 10uM” value stood at 18.4%. With `Cc1ccc(Cl)cc1NS(=O)(=O)c1ccc(-n2cccn2)cc1` the figure was 1.75%; with `CC(=O)NS(=O)(=O)c1ccc(NC(=S)NC(=O)COc2ccccc2C)cc1`, -1.41%; with `Cc1ccc(S(=O)(=O)N2CCC(C(=O)NCCc3ccc(S(N)(=O)=O)cc3)CC2)cc1`, 7.78%.

For the compound `CCC(=O)N1CCc2cc(Br)cc(S(=O)(=O)CCC(=O)NCCOC)c21`, the “hERG current change (%, negative = inhibition) at 10uM” value is 20.7%. The figure for `COc1ccc(C(=O)Nc2c(N)nc(SCC(=O)N3CCC(C)CC3)[nH]c2=O)cc1` is 20.6%; for `CCN(C(=O)CSc1nc2ccccc2c(=O)n1CCOC)C1CCS(=O)(=O)C1` (stereo not shown) it is -61.2%. The figure for `C=C1c2cc(OC)ccc2NC(=O)N1CC` is -5.01%; for `CC(OC(=O)CNC(=O)c1ccc2ccccc2c1)C(=O)NC1CCCCC1C` (stereo not shown) it is -4.63%.

Take `CCCOc1ccc2nc(C)c(CCC)c(SC(=N)N)c2c1.Cl`: the “hERG current change (%, negative = inhibition) at 10uM” value was determined as 11.1%.

For `O=C(COc1ccc(Br)cc1)Nc1ccc(S(=O)(=O)Nc2ccccn2)cc1`, the “hERG current change (%, negative = inhibition) at 10uM” value is -5.28%.
